From PubChem BioAssay AID485344 (National Center for Advancing Translational Sciences (NCATS), 2010) come the findings set out here.

Out of some 340,000 compounds screened, about 6,900 (2%) were called active. Cut-off read from the data, not from the text of the source: active = inhibition above about 30%; inactive = below that, where a call was filed. Only a part is listed here, and it is no random draw. Entries without a call were filed so in the source.

Usually inhibition stands for the relative decrease from the control value, in per cent.

UniProt P14416, sequence (P14416 whole entry, looked up): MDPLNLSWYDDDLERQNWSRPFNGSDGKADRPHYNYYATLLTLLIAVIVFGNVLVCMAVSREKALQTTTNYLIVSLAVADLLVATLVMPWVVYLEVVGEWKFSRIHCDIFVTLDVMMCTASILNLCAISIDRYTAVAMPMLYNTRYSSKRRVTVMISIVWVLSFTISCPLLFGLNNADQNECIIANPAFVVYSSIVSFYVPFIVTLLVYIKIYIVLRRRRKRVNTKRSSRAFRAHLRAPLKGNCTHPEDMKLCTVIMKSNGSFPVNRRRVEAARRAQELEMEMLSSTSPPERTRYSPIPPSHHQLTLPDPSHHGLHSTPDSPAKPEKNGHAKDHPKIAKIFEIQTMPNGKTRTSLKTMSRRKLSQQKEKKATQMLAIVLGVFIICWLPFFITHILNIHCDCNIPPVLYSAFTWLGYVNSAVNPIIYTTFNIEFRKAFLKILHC

This assay addresses D(2) dopamine receptor (Homo sapiens) (UniProt P14416). Put plainly: HTS Assay for Allosteric Antagonists of the Human D2 Dopamine Receptor: Primary Screen for Antagonists. Note: 0% is about no effect. The conditions noted are these: HEK293 TREx D2 cells, calcium flux, dopamine EC80; at 10 µM; stronger effect = higher value. The gist of the method:
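Cells plated overnight at 30 C with tetracycline; no-wash calcium dye, 30–90 min RT; 10 s baseline; compound pinned; 180 s read; EC80 dopamine added; another 180 s read.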
In general terms: A change in cytosolic calcium serves as a functional read-out for many receptors and channels.
With `Cn1nnc(NC(=O)CSc2ccc(Cl)cc2)n1`, the inhibition is active: 39.8%.

Turning to `Cc1cccc(Cn2cc3c(=O)n(CC(=O)Nc4cccc(C)c4C)nc-3c3cc(F)ccc32)c1`, the inhibition is -2.9%.

On to `Cc1c(C(=O)Nc2cccc(C(F)(F)F)c2)sc2nc3n(c(=O)c12)CCC3`, for which the inhibition was found to be 26.8%.

`CCCN(CCC)CCNC(=O)c1cc2c(=O)oc3ccc(C)cc3c2s1`: the inhibition is -8.92%.

Turning to `COc1ccc(NC(=O)c2cc(C3CC3)nc3c2c(C)nn3-c2ccccc2)c(OC)c1`, the inhibition turned out to be 6.94%.

Take `CC(C)Cc1nn2c(=O)cc(COC(=O)c3cccc(NC(=O)c4ccccc4)c3)nc2s1`: the inhibition amounted to 12%.

With `Cc1cccc(N2CCN(C(=O)c3cc4ccc5cccnc5c4[nH]3)CC2)c1C`, the inhibition was -3.73%.

Consider `COCCN(Cc1ccc(C)c(Br)c1)S(=O)(=O)c1ccc2[nH]c(=O)ccc2c1`, for which the inhibition turned out to be 23.1%.

With `CCOCCCNC(=O)Cn1ncc2c([nH]c3ccc(C)cc32)c1=O`, the inhibition came out at 5.66%.

As to `Cc1ccc(C)c(N2CCN(C3(c4ccccc4)C(=O)c4ccccc4C3=O)CC2)c1`, the inhibition was determined as 5.11%.

Regarding `Cc1noc(/C=C/N(C)C)c1S(=O)(=O)N1CCC(C(=O)NC(C)(C)C)CC1`, the inhibition was active: 31.5%.

As for `CCOC(=O)c1ccc(NC(=O)c2cc(=O)c3ccc(C)c(C)c3o2)cc1`, the inhibition was determined as 0.702%.

For `CC(=O)N1CCc2cc(Br)cc(S(=O)(=O)CCC(=O)N3CCN(c4cccc(C)c4C)CC3)c21`, the inhibition stood at 2.36%.

For `Cn1nc(-c2ccccc2)c(-c2ccccc2)c(C(=O)Nc2ccccc2C(N)=O)c1=O`, the inhibition was 8.98%.

As for `CCCN(CCC)c1cc(C)nc2nc(-c3ccc(C(C)(C)C)cc3)nn12`, the inhibition turned out to be 23.9%.

As to `CN(C)c1ccc(-c2nc3ccc(Cl)cn3c2Nc2ccc3c(c2)OCCO3)cc1`, the inhibition was -15.1%.

As to `Cc1cc(C)cc(N2C(=O)CSC23C(=O)N(CC(N)=O)c2ccccc23)c1` (stereo not given), the inhibition is -0.975%.

As to `CSc1cccc(Nc2cc(C(=O)NC3CCCCC3)c3ccccc3n2)c1`, the inhibition was -13.1%.

For the molecule `COc1cc2c(cc1OC)[C@@H]1Cc3ccc(OC)c(OC)c3CN1CC2`, the inhibition was active: 57.2%.

On to `CCc1ccc2occ(CC(=O)Nc3c(C(=O)c4ccc(F)cc4)oc4ccccc34)c2c1`, for which the inhibition is -5.01%.

`COc1ccc(C)cc1NC(=O)Cn1c(=O)oc2cc(S(=O)(=O)N3CCCCCC3)ccc21`: the inhibition is -17.6%.

Take `CCCCCCSc1nc(N)c2c3c(sc2n1)CCCC3C` (stereo not given): the inhibition was found to be 10.9%.

In the case of `CC(C)(C)C1CCc2c(sc(NC(=O)c3cc(-c4ccc(F)cc4)on3)c2C#N)C1` (stereo not given), the inhibition is -13.4%.

Regarding `Cc1ccc(OCC(=O)OCc2cc(=O)n3nc(C4CC4)sc3n2)cc1C`, the inhibition is -14.2%.

For the molecule `Cc1cc(C)cc(-n2ccn3cnnc3c2=O)c1`, the inhibition came to 0.186%.

Turning to `CCC(C(=O)NCCc1ccc(OC)c(OC)c1)n1nc(C)c2sc3ccccc3c2c1=O` (stereo not given), the inhibition came to 18%.

With `Cc1nc2c([nH]1)C1(CCN(Cc3ccccc3)CC1)C(C#N)=C(N)O2`, the inhibition is active: 60%.

For `CCCN(c1ccccc1F)S(=O)(=O)c1cc(-c2cc(C)no2)ccc1C`, the inhibition was 5.51%.

`CCc1nnc2c(Nc3cc(OC)c(Cl)cc3OC)nc3ccccc3n12`: the inhibition was -11.6%.

With `COc1ccc(-c2oc3ncn4nc(COc5ccc(Cl)cc5)nc4c3c2-c2ccc(OC)cc2)cc1`, the inhibition was -15.8%.

In the case of `O=C(Nc1ccc2oc(-c3cccc4c(Br)cccc34)nc2c1)c1cccc(Cl)c1`, the inhibition is -1.7%.

Take `Cc1ccc(OCCCC(=O)Nc2sc3c(c2C(N)=O)CCC(C)C3)cc1` (stereo not given): the inhibition came to 11.5%.

Take `CC(C)NC(=O)C1CCCN(S(=O)(=O)c2ccc3c(ccn3C)c2)C1` (stereo not given): the inhibition came out at 17.9%.

With `CCc1cccc(C)c1NC(=O)c1cc(CN2CCCC2)on1`, the inhibition is -8.75%.

Consider `COCCn1c(C)cc(O)c(C(c2cccc(F)c2)N2CCN(c3ccccc3)CC2)c1=O` (stereo not given), for which the inhibition was -11.1%.

With `COc1ccc(N(CC(=O)N2CCN(c3cccc(Cl)c3)CC2)S(=O)(=O)c2c(C)noc2C)cc1`, the inhibition turned out to be 3.33%.

As to `CCOc1ccc(C(=O)N2CC(=O)Nc3ccc(F)cc3C2c2ccc(F)cc2)cc1` (stereo not given), the inhibition is -0.836%.

`Cc1cccc(OCC(=O)Nc2ccc3nc(SCc4ccccc4)sc3c2)c1`: the inhibition turned out to be 10.9%.

`CCc1ccc(CNC(=O)c2ccc(Cn3c(=O)c4cccn4c4cccnc43)cc2)cc1`: the inhibition was 7.02%.

For the molecule `CCCc1nnc(NC(=O)CSc2nnc3c4ccccc4n(CC)c3n2)s1`, the inhibition amounted to 2.19%.

In the case of `Cc1cc(Cl)ccc1NC(=O)C1CCCN(c2nnc(C)c3c(C)n(-c4ccccc4)nc23)C1` (stereo not given), the inhibition was -0.349%.

Take `COc1cccc(CNC(=O)CCc2c(C)nn(-c3ccc(N4CCCC4)nn3)c2C)c1`: the inhibition was found to be 0.129%.

With `Cc1cc(C)c(NC(=O)C(C)n2nc(C)c3sc4ccccc4c3c2=O)c(C)c1` (stereo not given), the inhibition was -26.4%.

Take `COc1cccc(N2CC(NC(=O)c3cccs3)CC2=O)c1` (stereo not given): the inhibition was -25.2%.

Take `CC(CCc1ccccc1)NC(=O)CSc1n[nH]c(-c2ccccc2Cl)n1` (stereo not given): the inhibition is 3.85%.

On to `COc1ccc(OC(=O)c2cn(-c3cccc(OC)c3)c(=O)c3ccccc23)cc1`, for which the inhibition was -17.3%.

For the molecule `Cc1cc(F)ccc1NC(=O)C1CCCN(C(=O)c2cnn(-c3ccccc3)c2-n2cccc2)C1` (stereo not given), the inhibition is -0.508%.

Take `Cc1ccc(OC(C)C(=O)N2CCN(CCc3ccccn3)CC2)cc1C` (stereo not given): the inhibition worked out at 19.7%.

As to `O=S(=O)(NCC(c1ccco1)S(=O)(=O)c1cccs1)c1ccccc1` (stereo not given), the inhibition came to 12.1%.

Take `Cc1ccccc1NC(=O)CSc1nccn1C`: the inhibition came to 10.3%.

Consider `Cc1nnc(N2CCC(C(=O)NC3CCC(C)CC3)CC2)c2nn(-c3ccc(Cl)cc3)c(C)c12` (stereo not given), for which the inhibition worked out at 4.42%.

As to `Cc1cccc(N(C)C(=O)Cn2cnc3nc4c(cc3c2=O)CCCC4)c1`, the inhibition was -5.64%.

For `CCN1C(=O)C(Cc2nc3ccccc3c(=O)n2-c2cccc(C)c2)c2ccccc21` (stereo not given), the inhibition turned out to be 2.62%.

Consider `CC(C)Oc1ccc(C(=O)NCCc2csc(-c3cccc(F)c3)n2)cc1`, for which the inhibition is -1.53%.

In the case of `Cc1ccc(-c2noc(-c3ccccc3OCC(=O)Nc3ccccc3[N+](=O)[O-])n2)cc1`, the inhibition was -4.1%.

As for `Cc1ccccc1NC(=O)c1c(C)oc2ccc(O)c(CN(C)Cc3ccccc3)c12`, the inhibition was -6.26%.

Regarding `O=C(Nc1ncc(Cc2ccc(F)cc2)s1)c1ccc2c(c1)CC(c1ccccc1)OC2=O` (stereo not given), the inhibition stood at 4.72%.

Regarding `Cn1c(CN2CCCCC2)c(C#N)c2ccccc21`, the inhibition is active: 45.6%.

Take `CCCC(=O)N1c2nc(-c3ccco3)nn2C2(CCCCC2)[C@@H]2CCCC[C@@H]21`: the inhibition was -5.49%.

Regarding `COc1cccc(NC(=O)Cn2c(=O)n(-c3ccc(C)cc3)c(=O)c3ccccc32)c1`, the inhibition came out at 16.7%.

`Cc1ccc(-c2nn(CCC(=O)Nc3ccc(OC(F)(F)F)cc3)c(=O)c3ccccc23)cc1`: the inhibition was determined as 3.28%.

As for `Cc1ccc(NC(=O)C2CCN(C(=O)c3sc4nc[nH]c(=O)c4c3C)CC2)cc1F`, the inhibition is -9.84%.

Regarding `COc1ccccc1C(=O)Nc1ccccc1OCc1cc(=O)n2cc(C)sc2n1`, the inhibition stood at 0.227%.

Consider `CCOc1cccc(C(=O)N(Cc2ccc(C(C)C)cc2)C2CCS(=O)(=O)C2)c1` (stereo not given), for which the inhibition was found to be 0.587%.

Regarding `CCc1ccc(N2CC(C(=O)Nc3nc4ccc(S(C)(=O)=O)cc4s3)CC2=O)cc1` (stereo not given), the inhibition is active: 36.6%.

As for `CCCSc1nnc(NC(=O)c2cc(=O)c3ccccc3o2)s1`, the inhibition came out at 9.02%.

`CCOC(=O)N1CCc2c(sc3c2c(=O)n(CCc2ccccc2)c(=O)n3CC(=O)Nc2ccccc2C)C1`: the inhibition was -6.96%.

`COc1ccc(NC(=O)C2CCCN(S(=O)(=O)c3ccc4[nH]c(=O)ccc4c3)C2)cc1Cl` (stereo not given): the inhibition is -13.6%.

As to `COC(=O)c1cc2sccc2n1Cc1c(C)cc(C)cc1C`, the inhibition was -4.9%.

For the molecule `CCCN1CCN(CCCNC(=O)c2cc3c(s2)-c2c(C)cccc2OC3)CC1`, the inhibition is 9.27%.

In the case of `O=C(c1cccc(Cl)c1)N(Cc1cccc(F)c1)C1CCS(=O)(=O)C1` (stereo not given), the inhibition came to 17.9%.

Consider `CCC(C(=O)NCc1ccccc1Cl)n1c(=O)c2cccn2c2ccccc21` (stereo not given), for which the inhibition was -8.97%.

Turning to `Cc1ccc2c(c1)N(C(=O)c1ccc(F)cc1)C(C)(C)CC2(C)c1ccccc1` (stereo not given), the inhibition was determined as 3.85%.

In the case of `CCN(CC)CCN(C(=O)c1ccc2c(c1)CCCC2)c1nc2c(C)cccc2s1`, the inhibition is active: 60.1%.

For the molecule `COC(=O)c1cc(OC)c(OC)cc1NC(=O)c1ccc2c(c1)CCN2S(C)(=O)=O`, the inhibition came out at 9.14%.

On to `O=C(NCc1ccccc1)c1c2c(nc3ccccc13)C(=O)N(C1CCCCC1)C2`, for which the inhibition stood at 1.05%.

On to `COc1ccc(-c2ccc(=O)n(CC(=O)Nc3ccc(Br)cc3F)n2)cc1`, for which the inhibition was -5.75%.

In the case of `CCS(=O)(=O)c1nc(S(=O)(=O)c2ccc(Cl)cc2)c(NCc2ccc(Cl)cc2)s1`, the inhibition was -1.88%.

Consider `CCOC(=O)c1[nH]c(C)c(CCC(=O)N2CCN(c3ccc(Cl)cc3)CC2)c1C`, for which the inhibition is -17.8%.

For the molecule `O=C(O)c1ccc(Nc2ncnc3scc(-c4ccccc4)c23)cc1`, the inhibition was found to be 7.48%.

Consider `Cn1c(=O)c2c(-c3ccccc3)n(-c3cccc(C#N)c3)cc2n(C)c1=O`, for which the inhibition was -7.51%.

Consider `CCOC(=O)c1sc(NC(NC(=O)c2ccco2)(C(=O)OC)C(F)(F)F)nc1C` (stereo not given), for which the inhibition was active: 33.8%.

As for `CCc1ccc2nc(N(Cc3cccnc3)C(=O)Cc3ccccc3)sc2c1`, the inhibition was -7.72%.

Regarding `O=C(C#Cc1ccccc1)Nc1ccc(F)cc1`, the inhibition is active: 46.7%.

As for `COc1ccc(Cc2c(C)nn(-c3nc(C)c(C(=O)Nc4cccc(C(C)=O)c4)s3)c2C)cc1`, the inhibition is -8.07%.

On to `CC(C)c1nn2c(=O)cc(COC(=O)c3cccc(NC(=O)CCc4ccccc4)c3)nc2s1`, for which the inhibition was -3.6%.

With `O=C(CSc1oc(-c2ccc(F)cc2)nc1S(=O)(=O)c1ccccc1)c1ccc(Cl)cc1`, the inhibition was -4.76%.

Consider `CCN(Cc1ccccc1)C(=O)Cn1c(=O)cc(C)c2c(C)nn(-c3cccc(F)c3)c21`, for which the inhibition was 7.75%.

In the case of `CCOc1ccc(-c2nnc(SCC(=O)NC3CCCCC3)nc2-c2ccc(OCC)c(OC)c2)cc1OC`, the inhibition was determined as 26%.

Consider `COc1ccc(CNC(=O)CCn2c(=O)c3cccn3c3ccc(F)cc32)cc1OC`, for which the inhibition was 17.2%.

On to `CC(C)c1ccc(NC(=O)C2CCC(CNS(=O)(=O)c3ccc4c(c3)CCCC(=O)N4)CC2)cc1` (stereo not given), for which the inhibition is -0.805%.

In the case of `CCc1ccc2occ(CC(=O)Nc3nnc(SC)s3)c2c1`, the inhibition was -8.59%.

Consider `CC(C)c1ccc(NC(=O)[C@H]2O[C@@H]3OC(C)(C)O[C@@H]3[C@H]3OC(C)(C)O[C@H]32)cc1`, for which the inhibition is 6.2%.

`Cc1c(Cc2ccccc2)c(=O)oc2c(O)c(O)ccc12`: the inhibition was active: 33.8%.

For `Cc1nn(CC(=O)N2CCN(c3ccccc3F)CC2)c(=O)c2cccn12`, the inhibition was -4.33%.
